Consider 1 molecule from paper PMC5244385, “Clumping factor A of Staphylococcus aureus interacts with AnnexinA2 on mammary epithelial cells” (Scientific Reports, 2017).

The experiment addresses T1, ClfA35-559 from pETM-10 (for ELISA) (S. aureus, UniProt Q53653 35-559).
T1 construct: Clumping factor A of S. aureus, 1576 bp amplified from genomic DNA (GenBank Z18852.1)
T1 sequence: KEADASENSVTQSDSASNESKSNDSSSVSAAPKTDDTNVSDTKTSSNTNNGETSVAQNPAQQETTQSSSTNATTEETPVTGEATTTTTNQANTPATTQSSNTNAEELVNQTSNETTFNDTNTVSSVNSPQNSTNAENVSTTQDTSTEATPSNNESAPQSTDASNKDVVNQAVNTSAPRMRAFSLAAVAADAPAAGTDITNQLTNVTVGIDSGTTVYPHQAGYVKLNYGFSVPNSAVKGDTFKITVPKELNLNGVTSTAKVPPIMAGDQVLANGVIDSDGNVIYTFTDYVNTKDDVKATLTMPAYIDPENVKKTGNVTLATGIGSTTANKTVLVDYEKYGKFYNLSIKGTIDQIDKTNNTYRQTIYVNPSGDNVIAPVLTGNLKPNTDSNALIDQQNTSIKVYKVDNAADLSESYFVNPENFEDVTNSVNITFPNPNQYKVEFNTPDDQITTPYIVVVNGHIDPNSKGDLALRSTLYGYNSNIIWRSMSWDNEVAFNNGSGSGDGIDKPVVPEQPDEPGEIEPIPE
The experiment is described as follows: ELISA; plates coated with 1 μg/well ClfA in PBS overnight at 4 °C, blocked with 2% BSA in PBS-T; AnnexinA2 or BSA (0–2000 nM) 1 h at RT; detected with anti-AnnexinA2 antibody and HRP secondary; triplicate. The note with it: both partners purified. (An ELISA detects its analyte on a solid surface through an enzyme-linked reagent.)

B1: AnnexinA2 from pETM-10 (for ELISA) (natural protein)
chain: not shown
notes: the forward primer begins at the codon of Ser2 (tct acc gtt cat gaa att), the reverse primer runs to the stop codon
In general, Kd refers to a measure of binding affinity in units of concentration. As to B1, binding was put at a Kd of 418 nM.
